# The other results are listed elsewhere or left out. Single values are uncertain, as repeats are few or missing.
# Assays:
# Test in all cases: cell viability relative to vehicle (% of vehicle); basal-like triple-negative breast cancer lines; higher = less cytotoxic
# Details in all cases: 10 µM; 72 h
# HCC-1143 = tested on: HCC-1143
# HCC-1187 = tested on: HCC-1187
# MDA-468 = tested on: MDA-468
# SUM-149 = tested on: SUM-149
# 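Also: stably firefly luciferase-GFP labeled cells in 96-well plates, viability read as luciferase photon flux after d-luciferin addition, treated wells normalized to vehicle wells, single-dose high-throughput screen.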
structure (smiles),measurement,setting,value
CCCCCCNC(=O)n1cc(F)c(=O)[nH]c1=O [Carmofur],cell viability,HCC-1143,83
same,cell viability,HCC-1187,73.3
same,cell viability,MDA-468,82.2
same,cell viability,SUM-149,69.8
O=C(C=CC=Cc1ccc2c(c1)OCO2)N1CCCCC1 [Piperine],cell viability,HCC-1143,165
same,cell viability,HCC-1187,105
same,cell viability,MDA-468,169
same,cell viability,SUM-149,170
CCc1ccc(CCOc2ccc(CC3SC(=O)NC3=O)cc2)nc1.Cl (stereo not drawn) [Pioglitazone HCl],cell viability,HCC-1143,91.9
same,cell viability,HCC-1187,81
same,cell viability,MDA-468,92.2
same,cell viability,SUM-149,146
COc1cc(OC)c(C(=O)CCCN2CCCC2)c(OC)c1.Cl [Buflomedil HCl],cell viability,HCC-1143,77.2
same,cell viability,HCC-1187,82.4
same,cell viability,MDA-468,107
same,cell viability,SUM-149,103
CCN(CC)CC#CCOC(=O)C(O)(c1ccccc1)C1CCCCC1.Cl (stereo not drawn) [Oxybutynin chloride],cell viability,HCC-1143,98.9
same,cell viability,HCC-1187,80.5
same,cell viability,MDA-468,138
same,cell viability,SUM-149,120
O=C(c1cc(Cc2n[nH]c(=O)c3ccccc23)ccc1F)N1CCN(C(=O)C2CC2)CC1,cell viability,HCC-1143,91.2
same,cell viability,HCC-1187,67
same,cell viability,MDA-468,79.5
same,cell viability,SUM-149,147
O=c1[nH]c(=O)n(C2CCCO2)cc1F (stereo not drawn),cell viability,HCC-1143,91.7
same,cell viability,HCC-1187,113
same,cell viability,MDA-468,87.5
same,cell viability,SUM-149,79.3
CCCCCCCCCCCCCCCCO [1-Hexadecanol],cell viability,HCC-1143,79.5
same,cell viability,HCC-1187,84.7
same,cell viability,MDA-468,91.2
same,cell viability,SUM-149,109
CN(C)CCC(c1ccc(Br)cc1)c1ccccn1.O=C(O)C=CC(=O)O (stereo not drawn) [Brompheniramine hydrogen maleate],cell viability,HCC-1143,73.8
same,cell viability,HCC-1187,96.6
same,cell viability,MDA-468,96.3
same,cell viability,SUM-149,98.4
CC(C)Cc1ccc(C(C)C(=O)O)cc1 (stereo not drawn) [Ibuprofen],cell viability,HCC-1143,83.4
same,cell viability,HCC-1187,76.9
same,cell viability,MDA-468,99.1
same,cell viability,SUM-149,106
C#Cc1cccc(Nc2ncnc3cc(OCCOC)c(OCCOC)cc23)c1 [Erlotinib],cell viability,HCC-1143,85
same,cell viability,HCC-1187,69.4
same,cell viability,MDA-468,60.1
same,cell viability,SUM-149,88.7
COC(=O)C1C2CC3c4[nH]c5cc(OC)ccc5c4CCN3CC2CC(OC(=O)c2cc(OC)c(OC)c(OC)c2)C1OC (stereo not drawn) [Reserpine],cell viability,HCC-1143,119
same,cell viability,HCC-1187,96
same,cell viability,MDA-468,131
same,cell viability,SUM-149,97.7
NC(=O)c1ncn(C2OC(CO)C(O)C2O)c1O (stereo not drawn) [Mizoribine],cell viability,HCC-1143,59.7
same,cell viability,HCC-1187,70.4
same,cell viability,MDA-468,88.3
same,cell viability,SUM-149,95.6
Nc1ncn(C2OC(CO)C(O)C2O)c(=O)n1 (stereo not drawn) [5-Azacytidine],cell viability,HCC-1143,53
same,cell viability,HCC-1187,73.6
same,cell viability,MDA-468,51.1
same,cell viability,SUM-149,85.7
COc1cc2c(Oc3ccc(NC(=O)C4(C(=O)Nc5ccc(F)cc5)CC4)cc3F)ccnc2cc1OCCCN1CCOCC1,cell viability,HCC-1143,105
same,cell viability,HCC-1187,82.8
same,cell viability,MDA-468,101
same,cell viability,SUM-149,87.1
Cc1ccc(C(=O)N(CCCN)C(c2nc3cc(Cl)ccc3c(=O)n2Cc2ccccc2)C(C)C)cc1 (stereo not drawn),cell viability,HCC-1143,27.4
same,cell viability,HCC-1187,24.6
same,cell viability,MDA-468,23.3
same,cell viability,SUM-149,31.4
Cl.O=C1NCC2(CCN(CCc3ccccc3)CC2)O1 [Fenspiride HCl],cell viability,HCC-1143,70
same,cell viability,HCC-1187,87.9
same,cell viability,MDA-468,103
same,cell viability,SUM-149,108
COC(=O)C1=C(C#N)NC(C)=C(C(=O)OC(C)C)C1c1cccc([N+](=O)[O-])c1 (stereo not drawn) [Nilvadipine],cell viability,HCC-1143,112
same,cell viability,HCC-1187,96.7
same,cell viability,MDA-468,110
same,cell viability,SUM-149,93.6
O=c1ccc2ccc(OCCCCN3CCN(c4cccc5sccc45)CC3)cc2[nH]1 [Brexpiprazole],cell viability,HCC-1143,113
same,cell viability,HCC-1187,96.8
same,cell viability,MDA-468,103
same,cell viability,SUM-149,116
Nc1ncn(C2CC(O)C(CO)O2)c(=O)n1 (stereo not drawn),cell viability,HCC-1143,91.3
same,cell viability,HCC-1187,159
same,cell viability,MDA-468,68.3
same,cell viability,SUM-149,94.7
NC(=O)N1CCC(CC(=O)N2CCC(C3c4ncc(Br)cc4CCc4cc(Cl)cc(Br)c43)CC2)CC1 (stereo not drawn) [Lonafarnib],cell viability,HCC-1143,28.4
same,cell viability,HCC-1187,69.9
same,cell viability,MDA-468,28.8
same,cell viability,SUM-149,155
NNC(=O)c1ccncc1 [Isoniazid],cell viability,HCC-1143,85.2
same,cell viability,HCC-1187,92.5
same,cell viability,MDA-468,88.6
same,cell viability,SUM-149,89.3
CN1CCN2c3ccccc3Cc3ccccc3C2C1.Cl (stereo not drawn) [Mianserin HCl],cell viability,HCC-1143,92.4
same,cell viability,HCC-1187,96.9
same,cell viability,MDA-468,92.6
same,cell viability,SUM-149,107
COC(=O)C1=COC(OC2OC(CO)C(O)C(O)C2O)C2C(CO)=CCC12 (stereo not drawn) [Geniposide],cell viability,HCC-1143,72.4
same,cell viability,HCC-1187,78.4
same,cell viability,MDA-468,119
same,cell viability,SUM-149,112
Clc1ccc(C(c2ccccc2Cl)C(Cl)Cl)cc1 (stereo not drawn) [Mitotane (Lsodren)],cell viability,HCC-1143,88.5
same,cell viability,HCC-1187,125
same,cell viability,MDA-468,121
same,cell viability,SUM-149,105
CCC1OC(=O)CC(O)C(C)C(OC2OC(C)C(OC3CC(C)(O)C(O)C(C)O3)C(N(C)C)C2O)C(CC=O)CC(C)C(=O)C=CC(C)=CC1COC1OC(C)C(O)C(OC)C1OC.O=C(O)C(O)C(O)C(=O)O (stereo not drawn) [Tylosin tartrate],cell viability,HCC-1143,96.4
same,cell viability,HCC-1187,111
same,cell viability,MDA-468,94.2
same,cell viability,SUM-149,111
CC(=O)C1CCC2C3CCC4=CC(=O)CCC4(C)C3CCC12C (stereo not drawn) [Progesterone],cell viability,HCC-1143,103
same,cell viability,HCC-1187,133
same,cell viability,MDA-468,121
same,cell viability,SUM-149,114

# From the supplement of paper PMC8512760
